Laboratory results taken from the RNAGym collection of RNA variant scans (doi:10.1093/nar/gkz1192).
Read counts are not given, so values of variants with three or more changes are uncertain.

B1: CPEB3 Ribozyme (parent)
chain: UAACAGGGGGCCACAGCAGAAGCGUUCACGUCGCAGCCCCUGUCAGAUUCUGGUGAAUCUGCGAAUUCUGCUGUAUAUCUC

Variants of: B1
Experiment: self-cleavage, relative activity (ratio to wild type); higher = more cleavage; in vitro, sequencing
Summary of the method: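 CPEB3 self-cleaving ribozyme mutant libraries were made by rounds of error-prone PCR, barcoded, and transcribed in vitro with T7 RNA polymerase for 5 hours at 37°C. Cleavage occurred during transcription and a 15 min DNase I step before EDTA stop. RNAs were reverse transcribed with template switching and Illumina-sequenced, with DNA sequencing mapping barcodes to variants. Relative activity is the variant's cleaved/total read fraction divided by wild type's (minimum 5 reads), averaged across three batches.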

Question: With UAACAGGGGGCCACAGCAGAAGCGCUCACGCCGCAGCCCCCGUCAGAUUCUGGUGAAUCUGCGAAUUCUGCUGUAUAUCUC as the variant, how does the self-cleavage read?
Answer: 0.19

Question: For UAACAGGGGGCCACAGCAGAAGCGCUCACGCCGCAGCCCCUGUCAGAUUCAGGUGAAUCUGCGAAUUCUGCUGUAUAUAUC, which self-cleavage is on record?
Answer: 0.13

Question: Which self-cleavage does the source give for UAACAGGGGGCCACAGCAGAAGCGCUCACGCCGCAGCCCCUGUCAGAUUCUGGUGAAUCAGCGAAUUCUGCUGUAUAUCUC here?
Answer: 0.39

Question: Which self-cleavage does the source give for UAACAGGGGGCCACAGCAGAAGCGCUCACGGCGCAGCCCCUGUCAGGUUCUGGUGAAUCCGCGAAUUCUGCUGUAUAUCUC here?
Answer: 0.12

Question: Which self-cleavage does the source give for UAACAGGGGGCCACAGCAGAAGCGCUCACGGCGCACCCCCUGUCAGAUUCUGGUGAAUCUGCGAUUUCUGCUGUAUAUCUC here?
Answer: 0.26

Question: Which self-cleavage does the source give for UAACAGGGGGCCACAGCAGAAGCGCUCACGUCGCAGCCCCAGUCUGAUUCUGGUGAAUCUGCGGACUCAGCUGAAUAUCUC here?
Answer: 0.04

Question: With UAACAGGGGGCCACAGCAGAAGCGCUCACGUCGCAGCCCCAGUCAGAUUCUGGUGAAUCUGCGGAUUCUGCUGUAUAUCUC as the variant, how does the self-cleavage read?
Answer: 0.2

Question: Which self-cleavage does the source give for UAACAGGGGGCCACAGCAGAAGCGCUCACGUCGCAGCCCCAGUCAGAUUUUGGUGGAUCUGCGAAUUCUGCUGUAUAUCUC here?
Answer: 0.15

Question: Which self-cleavage does the source give for UAACAGGGGGCCACAGCAGAAGCGCUCACGUCGCAGCCCCAGUCAUAUUCUGGUGAGUCUGCGAAUUCUGCUGUAUAUCUC here?
Answer: 0.22

Question: Which self-cleavage does the source give for UAACAGGGGGCCACAGCAGAAGCGCUCACGUCGCAGCCCCAGUCAGACUCUGGUGAAUCUGCGAAUUCUGCUGUAUAUCUC here?
Answer: 0.37

Question: With UAACAGGGGGCCACAGCAGAAGCGCUCACGUCGCAGCCCCAGUCAGACUCUGGUGAAUCUGCGAAUACUGCUGUAUAUCUC as the variant, how does the self-cleavage read?
Answer: 0.08

Question: Which self-cleavage does the source give for UAACAGGGGGCCACAGCAGAAGCGCUCACGUCGCAGCCCCAGUCAGAUUCUGGUGAAUCCGCGGAUUCUGCUGUAUAUCUC here?
Answer: 0.07

Question: For UAACAGGGGGCCACAGCAGAAGCGCUCACGUCGCAGCCCCAGUCAGAUUCUGGUGAAUCCGCGAAUUCUGCUAUAUAUCAC, which self-cleavage is on record?
Answer: 0.14

Question: With UAACAGGGGGCCACAGCAGAAGCGCUCACGUCGCAGCCCCCGUCGGAUUCUGGUGGAUCUGCGUAUUCUGCUGUAUAUCUC as the variant, how does the self-cleavage read?
Answer: 0.14

Question: Which self-cleavage does the source give for UAACAGGGGGCCACAGCAGAAGCGCUCACGUCGCAGCCCCCGUCUGAUUCCGGCGAAUCUGCGAAUUCUGCUGUAUAUCUC here?
Answer: 0.31

Question: Which self-cleavage does the source give for UAACAGGGGGCCACAGCAGAAGCGCUCACGUCGCAGCCCCCGUCAGAUUCUGGUGGAUCUGCGAACUCUGCUGUAUAUCUC here?
Answer: 0.1

Question: For UAACAGGGGGCCACAGCAGAAGCGCUCACGUCGCAGCCCCCGUCAGAUUCUGGUGAAUCUGCGAAUUCUGCUGUGUAUCUC, which self-cleavage is on record?
Answer: 0.43

Question: Which self-cleavage does the source give for UAACAGGGGGCCACAGCAGAAGCGCUCACGUCGCAGCCCCCGUCAGAUUCUGGUUAACCUGCGAAUUCUGCUGUAUAUCAC here?
Answer: 0.08

Question: With UAACAGGGGGCCACAGCAGAAGCGCUCACGUCGCAGCCCCCGUCAGAUUCAGGUGAAUCUGCAAAUUCUGCUGCAUAUCUC as the variant, how does the self-cleavage read?
Answer: 0.2

Question: With UAACAGGGGGCCACAGCAGAAGCGCUCACGUCGCAGCCCCCGUCAGAUUCUGGUGAACCUGCGAAUUCUGCUGUAUAUCUC as the variant, how does the self-cleavage read?
Answer: 0.06

Question: Which self-cleavage does the source give for UAACAGGGGGCCACAGCAGAAGCGCUCACGUCGCAGCCCCCGUCAGAUUCUGGUGAACCUGCGGAUUCAGCUGUAUAUCUC here?
Answer: 0.03

Question: With UAACAGGGGGCCACAGCAGAAGCGCUCACGUCGCAGCCCCCGUCAGAUUCUGGUGAAUCAGCGAACUCUGCUGUAUAUCUC as the variant, how does the self-cleavage read?
Answer: 0.12

Question: With UAACAGGGGGCCACAGCAGAAGCGCUCACGUCGCAGCCCCCGUCAGAUUCUGGUGAAUCUGCGAAUCCAGCAGUAUAUCUC as the variant, how does the self-cleavage read?
Answer: 0.12

Question: With UAACAGGGGGCCACAGCAGAAGCGCUCACGUCGCAGCCCCUGACAGGUUCUGGUGAAUCUGCGAGUUCUGCUGUAUUUCUC as the variant, how does the self-cleavage read?
Answer: 0.22

Question: Which self-cleavage does the source give for UAACAGGGGGCCACAGCAGAAGCGCUCACGUCGCAGCCCCUGACAGAUUCUGGUGGAUCAGCGAAUUCUGCUGUAUAUCCC here?
Answer: 0.16

Question: Which self-cleavage does the source give for UAACAGGGGGCCACAGCAGAAGCGCUCACGUCGCAGCCCCUGACAGAUUCUGGUGAAUCUGCGAGUUCUGCUGUAUAUCUC here?
Answer: 0.16

Question: With UAACAGGGGGCCACAGCAGAAGCGCUCACGUCGCAGCCCCUGACAGACUCUGGUGAAUCUGCGAAUUCUGCUGUAUAUCUC as the variant, how does the self-cleavage read?
Answer: 0.29

Question: With UAACAGGGGGCCACAGCAGAAGCGCUCACGUCGCAGCCCCUGACAGAUUCGGGUGAAUCUGCGAACUCUGCUGUAUAUCUC as the variant, how does the self-cleavage read?
Answer: 0.22

Question: Which self-cleavage does the source give for UAACAGGGGGCCACAGCAGAAGCGCUCACGUCGCAGCCCCUGCCUGAUUCUGGUGAAUCUGCGAAUUCUGCUGUAUACCUC here?
Answer: 0.17

Question: For UAACAGGGGGCCACAGCAGAAGCGCUCACGUCGCAGCCCCUGCCAGAUUCUGGUGGAUCUGCGAAUUCUGCUGUGUAUCUC, which self-cleavage is on record?
Answer: 0.07

Question: With UAACAGGGGGCCACAGCAGAAGCGCUCACGUCGCAGCCCCUGCCAGAUUCUGGUGUAUCUGCGAAUUCUGCUGUAUAGCUC as the variant, how does the self-cleavage read?
Answer: 0.27

Question: Which self-cleavage does the source give for UAACAGGGGGCCACAGCAGAAGCGCUCACGUCGCAGCCCCUGCCAGAUUCUGGUGAUUCUGCGAAUUCUGCUGUAUAUCUC here?
Answer: 0.21

Question: For UAACAGGGGGCCACAGCAGAAGCGCUCACGUCGCAGCCCCUGCCAGAUUCUGGUGAAUCUGCGGUUUCUGCCGUAUAUCUC, which self-cleavage is on record?
Answer: 0.19

Question: Which self-cleavage does the source give for UAACAGGGGGCCACAGCAGAAGCGCUCACGUCGCAGCCCCUGCCAGAUUCUGGUGAAUCUGCGUAUUCUGCUGUAUAUCUC here?
Answer: 0.21
